Results on 87 compounds are retold here after paper PMC4336329 (PLoS ONE, 2015).

In all, about 310,000 compounds went through this assay and about 14,000 (4.5%) showed an effect of 50% or more. The effect is printed as a negative number. The list shows a part of the results.
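Note: peak tail current of the secondary pulse compared with the same well before compound.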

Chain of human ether-à-go-go-related gene (hERG) potassium channel (Q12809 whole entry, looked up): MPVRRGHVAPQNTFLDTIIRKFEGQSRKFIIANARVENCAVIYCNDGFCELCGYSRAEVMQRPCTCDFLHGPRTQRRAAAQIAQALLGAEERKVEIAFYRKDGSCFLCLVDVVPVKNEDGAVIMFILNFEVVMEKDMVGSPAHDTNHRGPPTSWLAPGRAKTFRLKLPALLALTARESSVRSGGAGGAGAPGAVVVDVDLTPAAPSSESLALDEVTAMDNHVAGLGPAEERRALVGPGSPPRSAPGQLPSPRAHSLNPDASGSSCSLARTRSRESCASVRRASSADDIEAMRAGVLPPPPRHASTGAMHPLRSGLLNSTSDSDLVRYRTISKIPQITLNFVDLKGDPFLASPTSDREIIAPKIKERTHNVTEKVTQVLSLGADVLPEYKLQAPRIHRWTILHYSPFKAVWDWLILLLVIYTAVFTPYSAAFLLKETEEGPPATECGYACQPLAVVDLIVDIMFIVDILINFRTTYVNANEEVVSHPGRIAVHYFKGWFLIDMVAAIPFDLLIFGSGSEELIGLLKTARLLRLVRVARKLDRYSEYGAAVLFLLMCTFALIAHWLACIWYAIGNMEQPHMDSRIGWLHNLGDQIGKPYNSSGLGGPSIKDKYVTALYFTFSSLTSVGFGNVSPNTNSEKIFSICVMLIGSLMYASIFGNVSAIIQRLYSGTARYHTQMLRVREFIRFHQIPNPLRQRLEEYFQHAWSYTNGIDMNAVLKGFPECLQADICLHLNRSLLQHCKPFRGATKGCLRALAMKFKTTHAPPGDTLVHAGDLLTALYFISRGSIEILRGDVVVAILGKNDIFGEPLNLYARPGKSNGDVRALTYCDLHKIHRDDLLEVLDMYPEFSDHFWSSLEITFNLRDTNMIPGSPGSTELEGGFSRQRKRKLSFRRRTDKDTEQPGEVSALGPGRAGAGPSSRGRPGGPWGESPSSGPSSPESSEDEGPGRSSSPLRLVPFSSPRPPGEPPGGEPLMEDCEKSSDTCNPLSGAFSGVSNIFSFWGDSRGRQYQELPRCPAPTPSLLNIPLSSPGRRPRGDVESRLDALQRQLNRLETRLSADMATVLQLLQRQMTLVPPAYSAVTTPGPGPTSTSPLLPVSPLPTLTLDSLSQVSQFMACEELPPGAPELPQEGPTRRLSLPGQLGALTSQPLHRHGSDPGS

This assay concerns the target human ether-à-go-go-related gene (hERG) potassium channel (human, UniProt Q12809). The assay is described as follows: primary screen, population patch clamp on CHO cells stably expressing hERG.
Take `CCN(CC)CCCN=Cc1c(O)n(-c2c(C)cccc2C)c(=O)c2ccccc12`: the “hERG current change (%, negative = inhibition) at 10uM” value is on record as -34.2%. As for `Cc1cc(N2CCN(S(=O)(=O)Cc3ccccc3)CC2)n2ncnc2n1`, the “hERG current change (%, negative = inhibition) at 10uM” value was -46.1%. The figure for `O=C(NC(NC(=S)Nc1ccccc1C(=O)O)C(Cl)(Cl)Cl)c1ccco1` (stereo not drawn) is 6.85%. The value for `CCC(C)C1Nc2ccc(C(=O)NCCc3ccc(OC)c(OC)c3)cc2NC1=O` (stereo not drawn) was 20.4%; that for `CNc1cnn(-c2ccc(C)cc2)c(=O)c1Cl` was 13.2%; that for `COc1ccc(OCC(=O)NCC(c2cccs2)N2CCOCC2)cc1` (stereo not drawn) was 4.86%. Regarding `N#CCCN(C(=O)CN1CCN(S(=O)(=O)c2ccc3c(c2)OCCO3)CC1)c1ccc(F)cc1`, the “hERG current change (%, negative = inhibition) at 10uM” value is listed as -8.83%. The figure for `Cc1csc(NC(=O)c2ccc(COc3ccccc3)o2)n1` is -17.7%; for `O=C1CC(c2ccccc2)CC(O)=C1C=Nc1ccccc1Cl` (stereo not drawn) it is 8.85%.

As for `CCn1c(COc2ccccc2C)nnc1SCC(=O)NC1CCCC1`, the “hERG current change (%, negative = inhibition) at 10uM” value is on record as -2.89%. The value for `CCC1=C(OC(=O)N(CC)CC)N2C(=O)OC(=NCC3CC3)[C@]2(C)[C@H]2C1=CC[C@H]1C(=O)NC(=O)[C@H]12` was 3.99%; that for `O=C(NCc1ccco1)C(=O)NCC1OCCN1S(=O)(=O)c1ccc(Br)cc1` (stereo not drawn) was -36.6%. The figure for `CC(=O)Nc1ccc(S(=O)(=O)Nc2ccc3[nH]c(=O)[nH]c3c2)cc1` is 24.9%. The figure for `Cc1ccc(C)c(NC(=S)N2CCC(NC(=O)c3ccco3)CC2)c1` is -8.35%; for `CN(C)CCNC(=O)C(=O)c1c(-c2ccccc2)cc2ccccn12` it is 1.93%.

For the compound `CC(=O)Nc1ccc(Sc2ccccc2C(=O)O)cn1`, the “hERG current change (%, negative = inhibition) at 10uM” value is 21.4%. The figure for `COC(=O)NC1(C(F)(F)F)C(=O)Nc2c1c(=O)n(C)c(=O)n2C` (stereo not drawn) is 31.3%; for `O=C(NN=C1c2ccccc2-c2ccccc21)c1ccccc1` it is -10.6%; for `CCN(Cc1cc2ccccc2[nH]c1=O)S(=O)(=O)c1ccccc1` it is -6.48%.

For `O=C(COc1ccc2c(-c3ccccc3)cc(=O)oc2c1)N[C@H](Cc1c[nH]c2ccccc12)C(=O)O`, the “hERG current change (%, negative = inhibition) at 10uM” value is -3.06%. Consider `NC(CO)C(O)c1ccc([N+](=O)[O-])cc1` (stereo not drawn), for which the “hERG current change (%, negative = inhibition) at 10uM” value worked out at 5.02%. The figure for `Clc1ccccc1CSc1nnc(-c2cccnc2)n1Cc1ccco1` is -43.1%. In the case of `Cc1cc(Nc2c(C)n(C)n(-c3ccccc3)c2=O)n2c(nc3cc(F)c(F)cc32)c1C#N`, the “hERG current change (%, negative = inhibition) at 10uM” value turned out to be 19.2%.

`COc1ccc(CCNC(=O)CN(C)S(=O)(=O)c2ccc(OC)cc2)cc1`: the “hERG current change (%, negative = inhibition) at 10uM” value is listed as -11.4%. The figure for `CN(C)CCNC(=O)C(c1ccccc1)c1ccccc1` is -28.3%; for `Cn1c2ccccc2n2c(=O)c(=O)n(CC(=O)c3ccc(Cl)cc3)nc12` it is -0.966%. In the case of `Cc1cccc(-c2nc(CN3CCN(Cc4cccc(F)c4)CC3)c(C)o2)c1`, the “hERG current change (%, negative = inhibition) at 10uM” value is on record as -47%.

Regarding `COc1cccc(C(=O)COc2cccc(NC(=O)c3ccco3)c2)c1`, the “hERG current change (%, negative = inhibition) at 10uM” value was -44%.

As to `O=C1N=C(N2CCCCC2)S/C1=C\c1ccc(Cl)cc1`, the “hERG current change (%, negative = inhibition) at 10uM” value amounted to 9.15%. The figure for `Cc1ccc(S(=O)(=O)Oc2ccc(/C=N/NC(=O)c3nn(C)cc3[N+](=O)[O-])cc2)cc1` is -1.82%.

Consider `C=CCn1c(=O)/c(=C/c2ccc(O)cc2)s/c1=C(/C#N)c1nnc2n1CCCCC2`, for which the “hERG current change (%, negative = inhibition) at 10uM” value is -16.6%. The figure for `COc1cccc(S(=O)(=O)Nc2ccc3c(c2)OCCO3)c1` is -6.43%. As for `O=C(c1ccco1)N1CCN(C(=O)C23CC4CC(CC(C4)C2)C3)CC1`, the “hERG current change (%, negative = inhibition) at 10uM” value was determined as 3.07%.

Turning to `Cn1c(SCC(=O)NNC(=O)Cc2ccccc2)nnc1-c1ccc(Cl)cc1`, the “hERG current change (%, negative = inhibition) at 10uM” value is on record as -7.07%. The value for `Cc1cc(OCC(=O)OCC(=O)N2CCc3ccccc3C2)ccc1Cl` was 15.1%; that for `CCN(CC)C(=O)CN1CCN(c2ccccc2F)CC1.Cl` was 12.5%. Turning to `Cc1ccc(S(=O)(=O)N(C)C)cc1NC(=O)COC(=O)/C=C/c1ccc2ccccc2n1`, the “hERG current change (%, negative = inhibition) at 10uM” value is 3.51%. The figure for `COc1ccc(N(CC(=O)NCCc2cccc(C)c2)S(=O)(=O)c2c(C)noc2C)cc1` is 11.5%.

As for `O=C(NNC(=O)c1cc(Cl)nc2ccccc12)c1ccccc1F`, the “hERG current change (%, negative = inhibition) at 10uM” value worked out at 16.6%. The figure for `CCNC(=S)N(Cc1cc2cc(C)cc(C)c2[nH]c1=O)C1CCCC1` is -7.52%. The figure for `C#CCN(C)Cc1ccccc1.Cl` is 0.852%; for `CCCCN(CC)CCCNC(=O)c1ccc(CS(=O)(=O)c2c(Cl)cccc2Cl)o1` it is -55.4%; for `Cc1ccccc1Cn1cc(NC(=O)c2cc3nc(-c4ccco4)cc(C(F)(F)F)n3n2)cn1` it is 7.92%. The value for `N=c1c(C(=O)NC2CCCC2)cc2c(=O)n3ccccc3nc2n1C1CCCCC1` was -79%; that for `Cc1ccc(S(=O)(=O)NC(C(=O)Oc2ccc3c(C)c(Cl)c(=O)oc3c2)c2ccccc2)cc1` (stereo not drawn) was 8.6%. As for `Cc1nn(-c2ccccc2)c(C)c1/C=N/NC(=O)c1ccc(F)cc1`, the “hERG current change (%, negative = inhibition) at 10uM” value is reported as -2.21%. Take `O/N=C/c1ccnc(SCc2ccccc2)n1`: the “hERG current change (%, negative = inhibition) at 10uM” value was -12.1%. The value for `COc1ccc(N2C(=O)c3ccccc3C2=O)cc1` was 4.96%. The value for `CC(C)Oc1nc(-c2ccc(Cl)cc2)nc2ccccc12` was 15.4%; that for `Cc1ccc(NCc2ccc(O)c3ncccc23)cc1` was 21.1%; that for `CCOc1ccc(NC(=O)CNc2ccc(C)cc2Cl)cc1` was 7.33%. In the case of `O=C(CSc1nc2ccccc2nc1N1CCCC1)Nc1ccc(F)cc1`, the “hERG current change (%, negative = inhibition) at 10uM” value is 11.1%. The value for `Cc1ccccc1NC(=O)COc1ccccc1C` was 13.8%.

For the compound `CCc1nc(SCC(=O)Nc2cc(C)on2)n[nH]1`, the “hERG current change (%, negative = inhibition) at 10uM” value is on record as -1.95%. The figure for `O=C(Cn1cc(C(F)(F)F)ccc1=O)Nc1ccccc1` is 17.2%; for `CCNC(=O)C(=O)Nc1ccc2c(c1)N(S(=O)(=O)c1cccs1)CCC2` it is -0.863%. As for `O=S(=O)(NCC(Nc1ccc(Cl)cc1)c1ccccc1)c1ccc(Cl)cc1` (stereo not drawn), the “hERG current change (%, negative = inhibition) at 10uM” value worked out at 7%.

Take `COC(=O)C1=C(N)c2c(F)cccc2C1(C#N)c1ccccc1` (stereo not drawn): the “hERG current change (%, negative = inhibition) at 10uM” value is given as -9.3%. Consider `CCCCCCP(=O)(O)c1ccccc1`, for which the “hERG current change (%, negative = inhibition) at 10uM” value was found to be 2%. The figure for `O=C(NC1CCCCC1)C1CCC(CNS(=O)(=O)c2cccc3nsnc23)CC1` (stereo not drawn) is 10%. The figure for `CCOC(=O)c1ccc(N=Cc2nc(-c3ccccc3)oc2OC(C)=O)cc1` is 11.2%; for `COc1cc2c(cc1NC(=O)CN1CCN(S(=O)(=O)c3ccc(C)cc3)CC1)oc1ccccc12` it is 3.91%; for `COc1ccc(N(CC(=O)Nc2ccc3c(c2)OCO3)S(=O)(=O)c2c(C)nn(C)c2C)cc1` it is 11.6%. The value for `CCCCCOC(=O)Cn1c(=O)c2c(nc(N3CCOCC3)n2C)n(C)c1=O` was -45.3%; that for `Cc1c(C(=O)Nc2ccc(S(=O)(=O)Nc3ncccn3)cc2)oc2ccccc12` was 7.14%; that for `Cc1ccc(S(=O)(=O)N2CCOCC2)cc1C(=O)Nc1ccccc1N1CCCC1` was -24.1%. For the compound `CC(C(=O)Nc1ccc(S(=O)(=O)N2CCCC2)cc1)N1CCN(C(=O)c2ccco2)CC1` (stereo not drawn), the “hERG current change (%, negative = inhibition) at 10uM” value is given as -7%. For the compound `Cc1ccc(-c2nn(C)c(=O)c3ccccc23)cc1S(=O)(=O)N1CCOCC1`, the “hERG current change (%, negative = inhibition) at 10uM” value was -36.8%. Consider `O=S1(=O)NC(=NCCOCCO)c2ccccc21`, for which the “hERG current change (%, negative = inhibition) at 10uM” value amounted to 9.3%. The value for `COc1ccc(OCC(O)COc2ccc(C(=O)O)cc2)cc1` (stereo not drawn) was 12.8%; that for `COc1ccc(Cc2nnc(SCC(=O)N3CCN(c4ccccc4)CC3)o2)cc1` was 1.95%; that for `Cc1noc(C)c1CSc1nnc(-c2ccccc2F)n1CCc1ccccc1` was -45.1%. On to `COC(=O)C1CCN(C(=O)NC2CCCCC2)CC1`, for which the “hERG current change (%, negative = inhibition) at 10uM” value worked out at 8.96%.

With `COc1ccc(C2C(C(=O)NCc3cccnc3)c3cc(OC)c(OC)cc3C(=O)N2C)cc1` (stereo not drawn), the “hERG current change (%, negative = inhibition) at 10uM” value worked out at 14.9%.

For the compound `CCCCNC(=O)c1ccc(CNS(=O)(=O)c2ccc(Br)cc2)cc1`, the “hERG current change (%, negative = inhibition) at 10uM” value was determined as 2%.

Turning to `CC1Cn2c(nnc2-c2ccc(F)cc2)S1` (stereo not drawn), the “hERG current change (%, negative = inhibition) at 10uM” value is -13.8%. The value for `COc1cccc(NC(=O)c2ccc(NC(C)=O)cc2)c1` was 9.01%. The value for `Cc1c(/C=N/NC(N)=O)c2ccccn2c1C(=O)c1ccncc1.Cl` was -54.9%. `CCCCNC(=O)c1cn(CC)c2ccc(S(=O)(=O)N3CCCCCC3)cc2c1=O`: the “hERG current change (%, negative = inhibition) at 10uM” value was determined as 7.01%. The value for `CCOCCCNS(=O)(=O)c1ccc(NC(=O)N2c3ccccc3Sc3ccccc32)cc1` was 3.13%; that for `COc1ccc(C(C(=O)NC2CCCC2)N(C(=O)c2ccco2)c2ccccc2OC)cc1` (stereo not drawn) was -12.4%; that for `Cc1ccc(/C=C2\CCOC2=O)cc1` was 1.95%. The value for `COCCCNC(=O)c1c(NC(=O)C2COc3ccccc3O2)sc2c1CCCC2` (stereo not drawn) was 15.2%. On to `CCSc1nc2ccccc2n1CC(N)=O`, for which the “hERG current change (%, negative = inhibition) at 10uM” value is listed as 8.19%. Turning to `O=C(c1cnn2c(C(F)(F)F)cc(-c3ccccc3)nc12)N1CCCc2ccccc21`, the “hERG current change (%, negative = inhibition) at 10uM” value turned out to be 8.7%. The value for `CCOc1ccc(NC(=O)Cn2nnc(C(=O)NCc3cccs3)c2N)cc1` was 13.8%; that for `O=C(CN1C(=O)NC2(CCCCCC2)C1=O)N1CCN(c2ccc(F)cc2)CC1` was -44.7%.
